Test results as given in US20060034941A1, “Organ preconditioning, arrest, protection, preservation and recovery” (priority 2002, published 2006).

Tested on: in situ rat heart, regional ischaemia by left coronary artery (LCA) occlusion
Assay: In vivo rat model of regional myocardial ischaemia (30 min left coronary artery ligation, 120 min reperfusion)
Conditions: for episodes of VF during reperfusion: 30 min reperfusion; for area of necrosis (AN/LV): % of left ventricle, after 120 min reperfusion; for animals experiencing at least one episode of VT at reperfusion: within the first minute of reperfusion / immediately following ischemia
[1] = 30 min ischaemia, surviving rats

SMILES | deaths during ischaemia (number of animals or words) (30 min LCA occlusion) | died during ischaemia from ventricular fibrillation (30 min LCA occlusion, % of animals of the group) [%] | animals experiencing ventricular fibrillation (VF) during ischaemia [1] [%] | animals experiencing ventricular tachycardia (VT) during ischaemia [1] [%] | duration of VT during ischaemia [1] [s] | episodes of VF during ischaemia [1] [episodes] | episodes of VT during ischaemia [1] [episodes] | episodes of VF during reperfusion | area of necrosis (AN/LV) [%] | duration of VT during reperfusion (first 30 min of reperfusion) [s] | VT+VF duration during reperfusion (reperfusion) [s] | animals experiencing at least one episode of VT at reperfusion [%] | effect on VT and VF during ischemia (30 min ischemia) | died during ischaemia from ventricular fibrillation (2 mg/kg bolus of lidocaine before ischaemia (before adenosine infusion)) [%] | VT+VF duration during ischaemia [1] [s] | infarct size increase above saline-controls (vs saline-controls)
Nc1ncnc2c1ncn2[C@@H]1O[C@H](CO)[C@@H](O)[C@H]1O [Ado-only, adenosine] | 4 of the 8 | 50 | 100 | 50 | 27 ± 18 | 3±2 | 11±7 | no episodes of VF | 33±7 | 11 ± 8 | 11 ± 8 | 75 | – | – | – | –
OC[C@H]1O[C@@H](n2cnc3c(NC4CCCC4)nc(Cl)nc32)[C@H](O)[C@@H]1O [CCPA, 2-chloro-N^6-cyclopentyladenosine] | two | – | – | – | 56 ± 18 | – | – | – | 24±3 | – | – | 100 | virtually no fibrillation | – | – | –
CCN(CC)CC(=O)Nc1c(C)cccc1C [Lido-only, lidocaine] | – | – | 33 | 83 | 31 ± 18 | 2±1 | 23±11 | no episodes of VF | 33±3 | – | – | 16 | – | 29 | 37 ± 22 | about 8%
